Experimental findings from the supplement of paper PMC10126150 are described below.

In the data set the test system is ATP. Nature of the data set: switch fluorescence ratio, 500 uM ATP over buffer (Cy3 cluster intensity, sum of 5 cycles each) (fold (ratio)); higher = stronger signal-on switching upon ATP binding; sequences stand for … in TCGTCGGCAGCGTCAGATGTGTATAAGAGACAGTTTTTTTTTTTTTTTTTTTTTTTTT…TC. The conditions noted are these: aptamer strand: ATP DNA aptamer (quencher-CACCTGGGGGAGTATTGCGGAGGAAGG + anchor), 100 nM annealed; ATP concentration: 500 uM; one replicate. The method in brief:
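Clusters with intensities outside 100-1000 RFU were excluded. The remaining Cy3-labelled switching-strand clusters on a modified Illumina MiSeq flow-cell had been annealed to 100 nM quencher-labelled ATP aptamer and imaged in selection buffer, then after 15 min with 500 uM ATP at 22 °C, for five cycles separated by NaOH stripping and re-annealing. The fluorescence ratio, averaged per switch-domain sequence, is each cluster's summed target-cycle Cy3 intensity over its summed buffer-cycle Cy3 intensity.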

Sequences with one replicate were seen in a single cluster, so their values are uncertain.
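Note: ATP exposure 15 min at 22 °C before imaging.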

Regarding TACCAGTCAA, the switch fluorescence ratio was 1.03.
The value for ACGAGTACTA was 1.1; that for CCGTTTCCGT was 1.08.
To CGTTTCGGCG belongs 0.943; to TAAATTATCC, 0.972; to TTCGCTAAGT, 1.1.
To CAGTTTTCTG belongs 0.964.
Consider TCGGGTTAAG, for which the switch fluorescence ratio was 0.972.
For AACCATACGC, the switch fluorescence ratio was determined as 1.35.
The value for CTGGGTATAC was 1.32; that for GTGAGGGCGT was 1.01.
To GGTGTCACCT belongs 0.986; to TTGTGGGCGG, 0.953.
To GTTAGGCT belongs 1.02.
Take GAGGCCCCGT: the switch fluorescence ratio was found to be 1.03.
The value for TTGCTTTGGT was 0.999.
On to TGTAATATC, for which the switch fluorescence ratio came out at 1.15.
To GGGCGGTCGT belongs 0.97; to CCCAATCACT, 1.8.
On to CCATGGTGGG, for which the switch fluorescence ratio came to 1.02.
The value for CGTGAGTGAA was 1.03; that for ACAACTTATT was 1.
The value for GCAGGGAATC was 0.994.
With TACAGCGAAG, the switch fluorescence ratio is 0.986.
CCTGAACAGC: the switch fluorescence ratio worked out at 0.999.
The value for ATCTTATGCA was 0.962; that for TCTGTTTGCC was 0.957; that for AGCTAGTTTG was 0.982.
Turning to CTAATGGTAC, the switch fluorescence ratio was found to be 1.21.
To CGTGATTGAT belongs 0.995; to GTTATGTATC, 1; to GAGTTCTAAT, 0.985.
The value for CAGACGCCGC was 2.06.
Regarding TACCGTGTAG, the switch fluorescence ratio turned out to be 1.02.
To CAAGGGCTGG belongs 1; to CCGACCACT, 3.17; to TGGATCATTC, 1.
The value for TTGACAATTA was 1.26; that for CGGTCCGATG was 1.04; that for GCAGCCCATG was 1.01.
To TAAGAATGAT belongs 0.987; to GGAAGGAAGG, 1.01; to GGGTTTCTGC, 1.02.
As to CTGTACCGGG, the switch fluorescence ratio came out at 1.
The value for GGGTTCTAAG was 1.01.
Regarding TCTTCGGG, the switch fluorescence ratio came to 0.939.
On to CGCAGTATTG, for which the switch fluorescence ratio amounted to 1.1.
To GTTGTAGATT belongs 0.962; to GAGAGAAATC, 0.953; to TTGAGATACC, 1.04.
To GATGCACAGG belongs 1.43.
To GCCGCGGTCA belongs 1.04; to GGGCGCCGTC, 0.962.
In the case of CGCCTTTTCA, the switch fluorescence ratio was 1.02.
As to AACACTAACA, the switch fluorescence ratio is 1.1.
Consider CTGATACACT, for which the switch fluorescence ratio was 1.03.
As to TTGCATACTA, the switch fluorescence ratio stood at 1.13.
Regarding TTGCTTAGTA, the switch fluorescence ratio stood at 0.947.
To CGTGAAGGG belongs 0.958; to CTGTCCGGAA, 2.02.
GTAATATGTA: the switch fluorescence ratio was determined as 1.02.
With TGCTTTATCG, the switch fluorescence ratio came to 1.04.
To TTGGTGTAGT belongs 1.01.
The value for ACACCGACCG was 1.33.
To ATATAACGGA belongs 1.01; to CTTGAGGAGG, 0.967.
For CGTTTCACAA, the switch fluorescence ratio was 1.03.
